# Assay results published in the supplement of paper PMC12217912.
# The other results are listed elsewhere or left out. Sequences were assembled here from the parent chain. Inactive controls read about 0.05.
# B1: TEV protease; numbered along this chain (parent)
# chain: MGESLFKGPRDYNPISSSICHLTNESDGHTTSLYGIGFGPFIITNKHLFRRNNGTLVVQSLHGVFKVKDTTTLQQHLVDGRDMIIIRMPKDFPPFPQKLKFREPQREERICLVTTNFQTKSMSSMVSDTSCTFPSGDGIFWKHWIQTKDGQCGSPLVSTRDGFIVGIHSASNFTNTNNYFTSVPKNFMELLTNQEAQQWVSGWRLNADSVLWGGHKVFMVKPEEPFQPVKEATQL
# Variants of: B1
# Test: raw area under fraction-flipped curve 0-4 h after induction (AUC4h, not background-subtracted), DNA-recorder readout of cleavage of the substrate (dimensionless); higher = more cleavage of the substrate by the protease variant
# Details: temperature: 34 °C; time window: 0-4 h after rhamnose induction
# Description: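 In vivo DNA recorder in E. coli TOP10(DE3) ΔrhaA at 34 °C. Each TEVp single-site mutant (parent TEVp 0) is paired with a single-site variant of the 7-mer TEVs (canonical ENLYFQ|S). The substrate sits between flexible linkers in a Bxb1-sfGFP-TEVs-SsrA fusion, so cleavage stabilises Bxb1 and speeds flipping of a recombination array, read by NGS. The value is the raw area under the fraction-flipped curve over 0-4 h after rhamnose induction (AUC4h), with ≥20 reads per time point. It is not background-subtracted; inactive controls average about 0.047.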
# 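Further: Bxb1 expression induced with 0.2% (w/v) L-rhamnose at OD600 near 0.5, cultures sampled hourly, flipped fraction per protease–substrate barcode pair counted by paired-end Illumina sequencing.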
Variant,area with substrate CNLYFQS,area with substrate FNLYFQS,area with substrate GNLYFQS,area with substrate HNLYFQS,area with substrate INLYFQS,area with substrate KNLYFQS,area with substrate LNLYFQS,area with substrate NNLYFQS,area with substrate PNLYFQS,area with substrate RNLYFQS
MGESLFKGPRDYNPISSSICHLTNESDGHTTSLYGIGFGPFIITNKHLFRRNNGTLVVQSLHGVFKVKDTTTLQQHLVDGRDMIIIRMPKDFPPFPQKLKFREPQREERICLVTTNFQTKSMSSMVSDTSCTFPSGDGIFWKHWIQTKDGQCGSPLVSTRDGFIVGIHSASNFTNTNNYFTSVPKNFMELLTNQEAQQWVSGWRLNADSVLWGGHKVFMVKREEPFQPVKEATQL [P222R],0.0627,0.0782,0.0571,0.067,0.0521,0.0697,0.0711,0.0759,0.0543,0.0502
MGESLFKGPRDYNPISSSICHLTNESDGHTTSLYGIGFGPFIITNKHLFRRNNGTLVVQSLHGVFKVKDTTTLQQHLVDGRDMIIIRMPKDFPPFPQKLKFREPQREERICLVTTNFQTKSMSSMVSDTSCTFPSGDGIFWKHWIQTKDGQCGSPLVSTRDGFIVGIHSASNFTNTNNYFTSVPKNFMELLTNQEAQQWVSGWRLNADSVLWGGHKVAMVKPEEPFQPVKEATQL [F218A],0.0713,,0.0706,,,0.0666,0.0892,0.089,,0.0334
MGESLFKGPRDYNPISSSICHLTNESDGHTTSLYGIGFGPFIITNKHLFRRNNGTLVVQSLHGVFKVKDTTTLQQHLVDGRDMIIIRMPKDFPPFPQKLKFREPQREERICLVTTNFQTKSMSSMVSDTSCTFPSGDGIFWKHWIQTKDGQCGSPLVSTRDGFIVGIHSASNFTNTNNYFTSVPKNFMELLTNQEAQQWVSGWRLNADSVLWGGHKVTMVKPEEPFQPVKEATQL [F218T],0.0514,0.0358,0.0631,0.0613,,,0.0591,,,
MGESLFKGPRDYNPISSSICHLTNESDGHTTSLYGIGFGPFIITNKHLFRRNNGTLVVQSLHGVFKVKDTTTLQQHLVDGRDMIIIRMPKDFPPFPQKLKFREPQREERICLVTTNFQTKSMSSMVSDTSCTFPSGDGIFWKHWIQTKDGQCGSPLVSTRDGFIVGIHSASNFTNTNNYFTSVPKNFMELLTNQEAQQWVSGWRLNADSVLWGGHKVYMVKPEEPFQPVKEATQL [F218Y],0.0641,,,,0.066,,,,,
MGESLFKGPRDYNPISSSICHLTNESDGHTTSLYGIGFGPFIITNKHLFRRNNGTLVVQSLHGVFKVKDTTTLQQHLVDGRDMIIIRMPKDFPPFPQKLKFREPQREERICLVTTNFQTKSMSSMVSDTSCTFPSGDGIFWKHWIQTKDGQCGSPLVSTRDGFIVGIHSASNFTNTNNYFTSVPKNFMELLTNQEAQQWVSGWRLNADSVLWGGHKVKMVKPEEPFQPVKEATQL [F218K],0.0566,,,,,0.0547,0.0682,,,
MGESLFKGPRDYNPISSSICHLTNESDGHTTSLYGIGFGPFIITNKHLFRRNNGTLVVQSLHGVFKVKDTTTLQQHLVDGRDMIIIRMPKDFPPFPQKLKFREPQREERICLVTTNFQTKSMSSMVSDTSCTFPSGDGIFWKHWIQTKDGQCGSPLVSTRDGFIVGIHSASNFTNTNNYFTSVPKNFMELLTNQEAQQWVSGWRLNADSVLWGGHKVDMVKPEEPFQPVKEATQL [F218D],0.0757,0.0641,,0.0413,,0.0631,0.0563,,,
MGESLFKGPRDYNPISSSICHLTNESDGHTTSLYGIGFGPFIITNKHLFRRNNGTLVVQSLHGVFKVKDTTTLQQHLVDGRDMIIIRMPKDFPPFPQKLKFREPQREERICLVTTNFQTKSMSSMVSDTSCTFPSGDGIFWKHWIQTKDGQCGSPLVSTRDGFIVGIHSASNFTNTNNYFTSVPKNFMELLTNQEAQQWVSGWRLNADSVLWGGHKVFMVAPEEPFQPVKEATQL [K221A],0.0636,,0.0708,0.0671,,0.0784,0.0571,,0.0472,
MGESLFKGPRDYNPISSSICHLTNESDGHTTSLYGIGFGPFIITNKHLFRRNNGTLVVQSLHGVFKVKDTTTLQQHLVDGRDMIIIRMPKDFPPFPQKLKFREPQREERICLVTTNFQTKSMSSMVSDTSCTFPSGDGIFWKHWIQTKDGQCGSPLVSTRDGFIVGIHSASNFTNTNNYFTSVPKNFMELLTNQEAQQWVSGWRLNADSVLWQGHKVFMVKPEEPFQPVKEATQL [G213Q],0.0216,,0.041,,0.0518,,,,,
MGESLFKGPRDYNPISSSICHLTNESDGHTTSLYGIGFGPFIITNKHLFRRNNGTLVVQSLHGVFKVKDTTTLQQHLVDGRDMIIIRMPKDFPPFPQKLKFREPQREERICLVTTNFQTKSMSSMVSDTSCTFPSGDGIFWKHWIQTKDGQCGSPLVSTRDGFIVGIHSASNFTNTNNYFTSVPKNFMELLTNQEAQQWVSGWRLNADSVLWGQHKVFMVKPEEPFQPVKEATQL [G214Q],0.0556,,,,,,,,,
MGESLFKGPRDYNPISSSICHLTNESDGHTTSLYGIGFGPFIITNKHLFRRNNGTLVVQSLHGVFKVKDTTTLQQHLVDGRDMIIIRMPKDFPPFPQKLKFREPQREERICLVTTNFQTKSMSSMVSDTSCTFPSGDGIFWKHWIQTKDGQCGSPLVSTRDGFIVGIHSASNFTNTNNYFTSVPKNFMELLTNQEAQQWVSGWRLNADSVLWGGHKRFMVKPEEPFQPVKEATQL [V217R],0.0622,0.0601,0.0667,,0.0498,,,0.0737,,
MGESLFKGPRDYNPISSSICHLTNESDGHTTSLYGIGFGPFIITNKHLFRRNNGTLVVQSLHGVFKVKDTTTLQQHLVDGRDMIIIRMPKDFPPFPQKLKFREPQREERICLVTTNFQTKSMSSMVSDTSCTFPSGDGIFWKHWIQTKDGQCGSPLVSTRDGFIVGIHSASNFTNTNNYFTSVPKNFMELLTNQEAQQWVSGWRLNADSVLWGGHKVFMTKPEEPFQPVKEATQL [V220T],0.098,,,0.0766,,,0.036,,0.0779,

# Same assay, conditions: temperature: 34 °C; time window: 0-4 h after rhamnose induction
Variant,area with substrate SNLYFQS,area with substrate TNLYFQS,area with substrate VNLYFQS,area with substrate WNLYFQS,area with substrate YNLYFQS,area with substrate QNLYFQS,area with substrate MNLYFQS
MGESLFKGPRDYNPISSSICHLTNESDGHTTSLYGIGFGPFIITNKHLFRRNNGTLVVQSLHGVFKVKDTTTLQQHLVDGRDMIIIRMPKDFPPFPQKLKFREPQREERICLVTTNFQTKSMSSMVSDTSCTFPSGDGIFWKHWIQTKDGQCGSPLVSTRDGFIVGIHSASNFTNTNNYFTSVPKNFMELLTNQEAQQWVSGWRLNADSVLWGGHKVFMVKREEPFQPVKEATQL [P222R],0.0637,0.0658,0.0463,0.0588,0.0528,,
MGESLFKGPRDYNPISSSICHLTNESDGHTTSLYGIGFGPFIITNKHLFRRNNGTLVVQSLHGVFKVKDTTTLQQHLVDGRDMIIIRMPKDFPPFPQKLKFREPQREERICLVTTNFQTKSMSSMVSDTSCTFPSGDGIFWKHWIQTKDGQCGSPLVSTRDGFIVGIHSASNFTNTNNYFTSVPKNFMELLTNQEAQQWVSGWRLNADSVLWGGHKVAMVKPEEPFQPVKEATQL [F218A],0.078,0.0487,,,0.0591,,
MGESLFKGPRDYNPISSSICHLTNESDGHTTSLYGIGFGPFIITNKHLFRRNNGTLVVQSLHGVFKVKDTTTLQQHLVDGRDMIIIRMPKDFPPFPQKLKFREPQREERICLVTTNFQTKSMSSMVSDTSCTFPSGDGIFWKHWIQTKDGQCGSPLVSTRDGFIVGIHSASNFTNTNNYFTSVPKNFMELLTNQEAQQWVSGWRLNADSVLWGGHKVTMVKPEEPFQPVKEATQL [F218T],,,,0.0506,0.0573,,
MGESLFKGPRDYNPISSSICHLTNESDGHTTSLYGIGFGPFIITNKHLFRRNNGTLVVQSLHGVFKVKDTTTLQQHLVDGRDMIIIRMPKDFPPFPQKLKFREPQREERICLVTTNFQTKSMSSMVSDTSCTFPSGDGIFWKHWIQTKDGQCGSPLVSTRDGFIVGIHSASNFTNTNNYFTSVPKNFMELLTNQEAQQWVSGWRLNADSVLWGGHKVYMVKPEEPFQPVKEATQL [F218Y],,,0.0581,,,,
MGESLFKGPRDYNPISSSICHLTNESDGHTTSLYGIGFGPFIITNKHLFRRNNGTLVVQSLHGVFKVKDTTTLQQHLVDGRDMIIIRMPKDFPPFPQKLKFREPQREERICLVTTNFQTKSMSSMVSDTSCTFPSGDGIFWKHWIQTKDGQCGSPLVSTRDGFIVGIHSASNFTNTNNYFTSVPKNFMELLTNQEAQQWVSGWRLNADSVLWGGHKVKMVKPEEPFQPVKEATQL [F218K],,,,0.0499,,0.061,
MGESLFKGPRDYNPISSSICHLTNESDGHTTSLYGIGFGPFIITNKHLFRRNNGTLVVQSLHGVFKVKDTTTLQQHLVDGRDMIIIRMPKDFPPFPQKLKFREPQREERICLVTTNFQTKSMSSMVSDTSCTFPSGDGIFWKHWIQTKDGQCGSPLVSTRDGFIVGIHSASNFTNTNNYFTSVPKNFMELLTNQEAQQWVSGWRLNADSVLWGGHKVDMVKPEEPFQPVKEATQL [F218D],0.0561,0.0586,0.078,0.0566,0.058,,0.0563
MGESLFKGPRDYNPISSSICHLTNESDGHTTSLYGIGFGPFIITNKHLFRRNNGTLVVQSLHGVFKVKDTTTLQQHLVDGRDMIIIRMPKDFPPFPQKLKFREPQREERICLVTTNFQTKSMSSMVSDTSCTFPSGDGIFWKHWIQTKDGQCGSPLVSTRDGFIVGIHSASNFTNTNNYFTSVPKNFMELLTNQEAQQWVSGWRLNADSVLWGGHKVFMVAPEEPFQPVKEATQL [K221A],,0.0708,0.0687,,,,
MGESLFKGPRDYNPISSSICHLTNESDGHTTSLYGIGFGPFIITNKHLFRRNNGTLVVQSLHGVFKVKDTTTLQQHLVDGRDMIIIRMPKDFPPFPQKLKFREPQREERICLVTTNFQTKSMSSMVSDTSCTFPSGDGIFWKHWIQTKDGQCGSPLVSTRDGFIVGIHSASNFTNTNNYFTSVPKNFMELLTNQEAQQWVSGWRLNADSVLWQGHKVFMVKPEEPFQPVKEATQL [G213Q],0.0748,,,,,,0.0834
MGESLFKGPRDYNPISSSICHLTNESDGHTTSLYGIGFGPFIITNKHLFRRNNGTLVVQSLHGVFKVKDTTTLQQHLVDGRDMIIIRMPKDFPPFPQKLKFREPQREERICLVTTNFQTKSMSSMVSDTSCTFPSGDGIFWKHWIQTKDGQCGSPLVSTRDGFIVGIHSASNFTNTNNYFTSVPKNFMELLTNQEAQQWVSGWRLNADSVLWGQHKVFMVKPEEPFQPVKEATQL [G214Q],0.054,,0.0465,,0.0585,,
MGESLFKGPRDYNPISSSICHLTNESDGHTTSLYGIGFGPFIITNKHLFRRNNGTLVVQSLHGVFKVKDTTTLQQHLVDGRDMIIIRMPKDFPPFPQKLKFREPQREERICLVTTNFQTKSMSSMVSDTSCTFPSGDGIFWKHWIQTKDGQCGSPLVSTRDGFIVGIHSASNFTNTNNYFTSVPKNFMELLTNQEAQQWVSGWRLNADSVLWGGHKRFMVKPEEPFQPVKEATQL [V217R],,,,,0.0593,,
MGESLFKGPRDYNPISSSICHLTNESDGHTTSLYGIGFGPFIITNKHLFRRNNGTLVVQSLHGVFKVKDTTTLQQHLVDGRDMIIIRMPKDFPPFPQKLKFREPQREERICLVTTNFQTKSMSSMVSDTSCTFPSGDGIFWKHWIQTKDGQCGSPLVSTRDGFIVGIHSASNFTNTNNYFTSVPKNFMELLTNQEAQQWVSGWRLNADSVLWGGHKVFMTKPEEPFQPVKEATQL [V220T],0.0571,,,,,,
